Laboratory results as given in the supplement of paper PMC7125110.
± gives the standard error. This sample is rich in variants without activity.

B1: glmS ribozyme (parent)
chain: AUAAAAGCGCCAGAACUACAGAAAUGUAGUUGACGAGGAGGAGGUUUAUCGAAUUUUCGGCGGAUGCCUCCAAA

Tests used:
Settings in all cases: with glucosamine-6-phosphate
[1] = variants of: B1; test: self-cleavage kobs at 40 uM GlcN6P; higher = faster cleavage; RNA array
How it was run: (§1)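 A hybridised Cy3 probe tracked barcoded ribozyme variants, transcribed in situ by E. coli RNA polymerase on sequenced MiSeq chips, at 37 °C. The variants received 40 μM to 10 mM glucosamine-6-phosphate in HEPES/KCl/Mg(OAc)2 buffer. kobs came from decay fits and kcat and KM from weighted Michaelis–Menten fits.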

[2] = variants of: B1; test: self-cleavage kobs at 640 uM GlcN6P; higher = faster cleavage; RNA array
How it was run: as §1

[3] = variants of: B1; test: self-cleavage kobs at 160 uM GlcN6P; higher = faster cleavage; RNA array
How it was run: as §1

[4] = variants of: B1; test: self-cleavage kobs at 2500 uM GlcN6P; higher = faster cleavage; RNA array
How it was run: as §1

[5] = variants of: B1; test: self-cleavage kobs at 10000 uM GlcN6P; higher = faster cleavage; RNA array
How it was run: as §1

Variant	self-cleavage kobs at 40 uM GlcN6P [1] [s⁻¹]	self-cleavage kobs at 640 uM GlcN6P [2] [s⁻¹]	self-cleavage kobs at 160 uM GlcN6P [3] [s⁻¹]	self-cleavage kobs at 2500 uM GlcN6P [4] [s⁻¹]	self-cleavage kobs at 10000 uM GlcN6P [5] [s⁻¹]
AUAAAAGAGCCAGAACUACAGAAAUGUAGUUGAGGAGGAGGAGGUUUAUCGAAUUUUCGGCGGAUGCCUCCAAA [C8A C34G]	< 1e-05	< 1e-05	< 1e-05	< 1e-05	< 1e-05
AUAAAAGAGCCAGAACUACAGAAAUGUAGUUGACGAGGAGGAGGUUUAUCGAAUUUUAGGCGGAUGCCUCCAAA [C8A C58A]	< 1e-05	< 1e-05	< 1e-05	–	–
AUAAAAGAGCCAAUACUACAGAAAUGUAGUUGACGAGGAGGAGGUUUAUCGAAUUUUCGGCGGGUGCCUCCAAA [C8A G13A A14U A64G]	< 1e-05	–	–	–	< 1e-05
AUAAAAGAGCCAGAACUACAGAAAUGUAGUUUACGAGGAGGAGGUUUAUCGAAUUUUCGGCGGAUGCCUCCAAA [C8A G32U]	< 1e-05	–	–	–	–
AUAAAAGAGCCAGAACUACAGAAAUGUAGUUUACGAGGAGAAGGUUUAUCGAAUUUUCGUUGGAUGCCGCCAAA [C8A G32U G41A G60U C61U U69G]	< 1e-05	< 1e-05	< 1e-05	< 1e-05	< 1e-05
AUAAAAGAGCCAGAACUACAGAAAUGUAGUUGACGAUGAGGAGGUUUAUCGAAUUUUCGGCGGAUGCCUCCAAA [C8A G37U]	< 1e-05	–	–	–	< 1e-05
AUAAAAGAGCCAGAACUACAGAAAUGUAGUUGACGAGAAGGAGGUUUAUCGAAUUUUCGGCGGAUGCCUCCAAA [C8A G38A]	< 1e-05	< 1e-05	< 1e-05	< 1e-05	< 1e-05
AUAAAAGAGCCAGAACUACAGAAAUGUAGUUGACGAGUAGGAGGUUUAUGGAAUUUUCGGCGGAUGCCUCCAAA [C8A G38U C50G]	4.1e-05 ± 2e-05	–	–	–	–
AUAAAAGAGCCAGAACUACAGAAAUGUAGUUGACGAGGAAGAGGUUUAUCGAAUUUUCGGCGGAUGCCUCCAAA [C8A G40A]	< 1e-05	< 1e-05	–	< 1e-05	–
AUAAAAGAGCCAGAACUACAGAAAUGUAGUUGACGAGGACGAGGUUUAUCGAAUUUUCGGCGGAUGCCUCCAAA [C8A G40C]	< 1e-05	< 1e-05	< 1e-05	< 1e-05	< 1e-05
AUAAAAGAGCCAGAACUACAGAAAUGUAGUUGACGAGGAGCAGGUUUAUCGAAUUUUCGGCGGAUGCCUCCAAA [C8A G41C]	< 1e-05	< 1e-05	< 1e-05	< 1e-05	< 1e-05
AUAAAAGAGCCAGAACUACAGAAAUGUAGUUGACGAGGAGGACGUUUAUCGAAUUUUCGGCGGAUGCCUCCAAA [C8A G43C]	< 1e-05	< 1e-05	–	–	< 1e-05
AUAAAAGAGCCAGAACUACAGAAAUGUAGUUGACGAGGAGGAUGUUUAUCGAAUUUUCGGCGGAUGCCUCCAAA [C8A G43U]	< 1e-05	–	–	< 1e-05	< 1e-05
AUAAAAGAGCCAGAACUACAGAAAUGUAGUUGACGAGGAGGAGAUUUAUCGAAUUUUCGGCGGAUGCCUCCAAA [C8A G44A]	< 1e-05	< 1e-05	< 1e-05	< 1e-05	< 1e-05
AUAAAAGAGCCAGAACUACAGAAAUGUAGUUGACGAGGAGGAGGUUUAUCCAAUUUUCGGCGGAUGCCUCCAAA [C8A G51C]	< 1e-05	< 1e-05	< 1e-05	< 1e-05	< 1e-05
AUAAAAGAGCCAGAACUACAGAAAUGUAGUAGACGAGGAGGAGGUUUAUGGAUUUUUCGGCGGAUGCCUACAAA [C8A U31A C50G A53U C70A]	0.000306 ± 7.3e-05	–	–	–	0.000515 ± 0.00016
AUAAAAGAGCCAGAACUACAGAAAUGUAGUCGACGAGGAGGAGGUUUAUCGAAUUUUCGGCGGAUGCCUCCAAA [C8A U31C]	< 1e-05	< 1e-05	< 1e-05	< 1e-05	< 1e-05
AUAAAAGAGCCAGAACUACAGAAAUGUAGUUGACGAGGAGGAGGUUUAUCGAAAUUUCGGCGGAUGCCUCCAAA [C8A U54A]	< 1e-05	< 1e-05	–	–	< 1e-05
AUAAAAGGGCCCGAACUACAGAAAUGUAGUUGACGAGGAGGAGGUUUAUCGAAUUUUCGGCGGAUGCCUCCAAA [C8G A12C]	< 1e-05	< 1e-05	< 1e-05	–	< 1e-05
AUAAAAGGGCCAGCACUACAGAAAUGUAGUUGACGAUGAGGAGGUUUAUCGAAGUUUCGGCGGAUGCCUCCAAA [C8G A14C G37U U54G]	< 1e-05	–	–	–	< 1e-05
AUAAAAGGGCCAGAACUACAGAAAUGUAGUUGACGAGGUGGAGGUUUAUCGAAUUUUCGGCGGAUGCCUCCAAA [C8G A39U]	< 1e-05	< 1e-05	< 1e-05	–	< 1e-05
AUAAAAGGGCCAGAACUACAGAAAUGUAGUUGACGAGGAGGGGGUUUAUCGAAUUUUCGGCGGAUGCCUCCAAA [C8G A42G]	< 1e-05	< 1e-05	< 1e-05	–	–
